The shares of active, inactive and inconclusive entries below differ from those in the screen. A potency beside an inconclusive call is a rough fit, not a confirmed value. Calls of active or inactive are those of the source. Calls come from the whole dose curve; as a rule, active = well fitted curve in the direction sought with a large enough effect in the repeat runs; inconclusive = weak or mixed curves; inactive = no such curve, though single readings can be large; an effect the other way counts as inactive or inconclusive.
How the values were obtained:
[1] = molecular target: Voltage-gated inwardly rectifying potassium channel KCNH2 (Homo sapiens) (UniProt Q12809); assay: Human Ether-a-go-go-Related Gene (hERG) channel small molecule antagonists: fluorescence cell-based qHTS assay (AID 1671200)
Chain of UniProt Q12809 (Q12809 whole entry, looked up): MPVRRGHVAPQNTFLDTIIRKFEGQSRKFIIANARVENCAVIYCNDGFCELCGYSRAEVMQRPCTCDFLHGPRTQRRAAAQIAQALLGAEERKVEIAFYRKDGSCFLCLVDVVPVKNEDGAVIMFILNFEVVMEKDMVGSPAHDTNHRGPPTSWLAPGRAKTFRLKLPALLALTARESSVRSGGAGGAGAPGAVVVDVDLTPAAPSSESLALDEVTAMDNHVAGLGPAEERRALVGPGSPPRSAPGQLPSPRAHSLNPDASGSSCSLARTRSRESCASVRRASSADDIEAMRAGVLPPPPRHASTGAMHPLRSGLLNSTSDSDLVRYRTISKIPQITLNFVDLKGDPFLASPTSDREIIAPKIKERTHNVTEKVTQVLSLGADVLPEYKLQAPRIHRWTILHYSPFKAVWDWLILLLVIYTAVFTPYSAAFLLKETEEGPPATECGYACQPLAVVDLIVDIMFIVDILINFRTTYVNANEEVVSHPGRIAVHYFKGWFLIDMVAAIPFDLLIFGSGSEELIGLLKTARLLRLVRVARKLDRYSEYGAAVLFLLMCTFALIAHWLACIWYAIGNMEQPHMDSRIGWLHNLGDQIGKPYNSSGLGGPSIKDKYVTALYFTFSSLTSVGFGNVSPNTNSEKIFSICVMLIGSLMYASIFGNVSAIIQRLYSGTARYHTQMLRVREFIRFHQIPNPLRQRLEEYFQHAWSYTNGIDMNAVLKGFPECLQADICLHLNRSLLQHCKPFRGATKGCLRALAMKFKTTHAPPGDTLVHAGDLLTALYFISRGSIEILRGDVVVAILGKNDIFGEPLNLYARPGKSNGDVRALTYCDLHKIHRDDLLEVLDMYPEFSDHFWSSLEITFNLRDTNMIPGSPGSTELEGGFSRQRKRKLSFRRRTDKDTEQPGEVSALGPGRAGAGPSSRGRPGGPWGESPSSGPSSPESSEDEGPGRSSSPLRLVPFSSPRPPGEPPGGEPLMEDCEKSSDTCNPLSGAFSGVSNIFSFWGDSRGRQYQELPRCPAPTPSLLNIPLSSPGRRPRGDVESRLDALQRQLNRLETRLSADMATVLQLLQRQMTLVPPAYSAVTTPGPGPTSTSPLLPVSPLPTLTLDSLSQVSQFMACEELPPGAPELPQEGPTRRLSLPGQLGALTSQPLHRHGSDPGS
Method in brief: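 U2OS cells expressing the channel were plated at 1000 cells/well, incubated overnight at 37 C, then loaded with FluxOR II thallium-sensitive dye for 1 h at room temperature in the dark, with a further 10 min at room temperature before stimulation.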

[2] = molecular target: Cytochrome P450 3A4 (Homo sapiens) (UniProt P08684); assay: Cytochrome P450 Family 3 Subfamily A Member 4 (CYP3A4) small molecule antagonists: luciferase reporter qHTS assay (AID 1671201)
Chain of UniProt P08684 (P08684 whole entry, looked up): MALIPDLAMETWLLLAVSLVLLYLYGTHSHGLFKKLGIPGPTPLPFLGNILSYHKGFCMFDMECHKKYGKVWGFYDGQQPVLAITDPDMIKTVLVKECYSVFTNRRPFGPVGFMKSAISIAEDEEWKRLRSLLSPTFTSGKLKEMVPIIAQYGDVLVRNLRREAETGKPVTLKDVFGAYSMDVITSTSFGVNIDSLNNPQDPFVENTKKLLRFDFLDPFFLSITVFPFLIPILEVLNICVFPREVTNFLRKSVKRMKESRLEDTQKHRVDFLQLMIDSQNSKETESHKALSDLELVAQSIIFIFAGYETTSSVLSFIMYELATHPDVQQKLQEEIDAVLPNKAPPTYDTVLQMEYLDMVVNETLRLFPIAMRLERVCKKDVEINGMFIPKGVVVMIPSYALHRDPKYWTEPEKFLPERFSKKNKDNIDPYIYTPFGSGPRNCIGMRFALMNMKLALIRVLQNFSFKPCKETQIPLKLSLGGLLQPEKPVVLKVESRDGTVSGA
Method in brief: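 P450-Glo CYP3A4 system with proluciferin substrate; compounds preincubated 10 min RT with enzyme-substrate mix, then NADPH regeneration added for 1 h RT. Detection reagent 20 min, luminescence read as relative luminescence units.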
Note: nearly all actives have a fitted effect of over 50% in size.
Potency is the fitted concentration of half-maximal effect; tags give direction and shape of the fitted curve.

| Structure (SMILES) | Potency [1] | Potency [2] |
| --- | --- | --- |
| C/C=C\C/C=C/CCCCCCCCOC(C)=O | inconclusive: 54.9 µM [inhibitor, single point] | – |
| Cc1ccc(Cl)cc1N | inactive | inconclusive: 22.9 µM [inhibitor, full curve] |
| O=C(CCc1ccc(O)cc1)c1c(O)cc(O)cc1O | inactive | – |
| COC(=O)Nc1nc2ccc(C(=O)c3cccs3)cc2[nH]1 | inactive | – |
| COc1ccc(N)c([N+](=O)[O-])c1 | – | inconclusive: 71 µM [inhibitor, partial curve, poor fit] |
| O=C(Cl)c1ccc(Cl)cc1Cl | – | inconclusive: 20 µM [inhibitor, full curve] |
| O=C1c2c(O)ccc(Nc3ccc(CCO)cc3)c2C(=O)c2c([N+](=O)[O-])ccc(O)c21 | inconclusive: 49 µM [inhibitor, partial curve] | active: 31.7 µM |
| c1ccc(CN(CC2=NCCN2)c2ccccc2)cc1 | active: 19 µM | – |
| CC(C)CC(C)CC(C)CC(C)COC(=O)c1ccccc1C(=O)OCC(C)CC(C)CC(C)CC(C)C (stereo not drawn) | – | inconclusive: 52.4 µM [inhibitor, partial curve] |
| O=C(N[C@@H](c1ccccc1)[C@@H]1CCCCN1)c1cccc(C(F)(F)F)c1Cl | inconclusive: 49 µM [inhibitor, single point] | – |
| COc1cc2c(cc1OC)C(C(C(=O)N(CCc1ccc(OC)c(OC)c1OC)CCc1ccc(OC)c(OC)c1OC)c1ccccc1)=NCC2 (stereo not drawn) | inconclusive: 19 µM [inhibitor, partial curve] | – |
| Cc1c(C(=O)NN2CCCCC2)nn(-c2ccc(Cl)cc2Cl)c1-c1ccc(Cl)cc1 | active: 2.13 µM | – |
| CCc1cc2cc(OC)c(OC)cc2c(Cc2ccccc2)n1 | inconclusive: 19 µM [inhibitor, partial curve] | – |
| CC(C)=CCC[C@](C)(O)[C@@H]1CC=C(C)CC1 | inconclusive: 38.9 µM [inhibitor, partial curve] | – |
| CCc1ccc2c(c1)C(=O)c1ccccc1C2=O | inconclusive: 24.5 µM [inhibitor] | – |
| Nc1ccc(N=Nc2ccc(N)cc2)cc1 | inactive | – |
| Oc1ccc2c(c1)-c1ccccc1C2 | – | inconclusive: 79.6 µM [inhibitor] |

| Structure (SMILES) | Potency [1] | Potency [2] |
| --- | --- | --- |
| Cc1c(C)c([N+](=O)[O-])c(C(C)(C)C)c([N+](=O)[O-])c1C | inconclusive: 24.5 µM [inhibitor, full curve] | – |
| CCc1ccc(C)cc1 | inactive | – |
| COc1ccc(-c2cc(C(F)F)nn2-c2ccc(S(N)(=O)=O)cc2)cc1F | inconclusive: 16.9 µM [inhibitor, partial curve] | – |
| CCCC[P+](C)(CCCC)CCCC | inconclusive: 49.6 µM [inhibitor] | – |
| NC(=O)Nc1nc2ccccc2[nH]1 | inactive | – |
| N#Cc1cc2ccccc2c2ccccc12 | – | inconclusive: 89.9 µM [inhibitor, partial curve, poor fit] |
| CC[C@@H]([C@H](C)O)n1ncn(-c2ccc(N3CCN(c4ccc(OC[C@@H]5CO[C@@](Cn6cncn6)(c6ccc(F)cc6F)C5)cc4)CC3)cc2)c1=O | inconclusive: 12 µM [inhibitor, partial curve] | – |
| COc1ccc2[nH]c(S(=O)Cc3ncc(C)c(OC)c3C)nc2n1 (stereo not drawn) | inactive | – |
| CCCC/C=C/C=C\C=O | inactive | active: 39.9 µM |
| OCC1CC=CCC1 (stereo not drawn) | inactive | – |
| CCOC(=O)Nc1ccc(NCc2ccc(F)cc2)nc1N | inconclusive: 19 µM [inhibitor, partial curve] | – |
| CC(C)COC(=O)COc1cc(Cl)c(Cl)cc1Cl | inconclusive: 43.5 µM [inhibitor, partial curve] | inconclusive: 39.8 µM [inhibitor, partial curve, poor fit] |
| O=[N+]([O-])C1(Br)COCOC1 | active: 54.9 µM | inconclusive: 56.4 µM [inhibitor, partial curve, poor fit] |
| OCCN1CCN(CCCN2c3ccccc3C=Cc3ccccc32)CC1 | inconclusive: 19 µM [inhibitor, partial curve] | – |
| Cc1cc(C(C)(C)C)cc(C)c1CC1=NCCN1 | inconclusive: 23.9 µM [inhibitor, partial curve] | – |
| CN(C)CCCOC1(Cc2ccccc2)CCCCCC1 | inconclusive: 23.9 µM [inhibitor, partial curve] | – |

Source: PubChem BioAssay (Tox21)
